Data taken from PubChem BioAssay AID588855 (National Center for Advancing Translational Sciences (NCATS), 2011).
Hit rate of the full screen: of about 410,000 compounds, about 5,000 (1.2%) were called active. The inconclusive results got no clear call from the source; some entries with a clear call stand among them for comparison. Calls come from the whole dose curve; as a rule, active = well fitted inhibition curve with a large enough effect; inconclusive = small, poorly fitted or top-dose-only effect; inactive = no such curve, though single readings can be large or run the other way. A potency beside an inconclusive call is a rough fit, not a confirmed value.

Test: qHTS for Inhibitors of TGF-b; note: nearly all actives have a fitted effect of over 65% in size
Settings: HepG2 CAGA-GFP TGF-b/SMAD3 reporter, GFP fluorescence, 18 h, TGF-beta stimulated, 500 pg/mL final; series mostly up to 46.1 µM
How it was run: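 TGF-beta reporter screen: HEPG2 CAGA-GFP, 1% FBS, 500 pg/mL TGF-beta final, 18 h; per-cell GFP summed per well; curves fitted and categorized by class.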
Potency is the fitted concentration of half-maximal effect; tags give direction and shape of the fitted curve.

Compound | Potency
Cc1ccc(NS(=O)(=O)c2ccc3c(c2)NC(=O)CCS3)c(Br)c1 | inconclusive: 22.4 µM [inhibitor, single point]
COC(=O)/C=C1\S/C(=N/NC(=O)c2ccc(OC)cc2)NC1=O | inconclusive: 2.24 µM [inhibitor, full curve]
COC(=O)c1sc2nc[nH]c(=O)c2c1C | inconclusive: 35.5 µM [inhibitor, single point]
Cc1ccc([C@H]2C[C@H](O)[C@@H](n3cc(COC(=O)c4ccccc4)nn3)CN2Cc2cccs2)cc1 | inconclusive: 35.5 µM [inhibitor, single point]
Cc1cc(F)ccc1NC(=O)c1sc2nc(-c3cccs3)ccc2c1N | inactive
S=c1[nH]nc(C2CCCCC2)n1/N=C/C=C/c1ccccc1 | inconclusive: 35.5 µM [inhibitor, single point]
CC(C)N(C(=O)[C@H]1C[C@H](CC(=O)NCc2cccc(C(F)(F)F)c2)C(=O)N2CCc3c([nH]c4cc(-c5ccco5)ccc34)[C@]12C)C(C)C | inconclusive: 12.6 µM [inhibitor, partial curve, poor fit]
CCc1ccc(/C=C2/Sc3ccccc3N(CC(=O)NCCCN3CCOCC3)C2=O)cc1 | inconclusive: 35.5 µM [inhibitor, single point]
CN(CCOc1ccccc1)C(=O)C1CCN(C(=O)c2ccc(F)cc2)CC1 | inconclusive: 7.08 µM [inhibitor, full curve]
O=C(Nc1cccc(Cl)c1)Nc1nc(-c2ccccc2)cs1 | inconclusive: 11.2 µM [inhibitor, partial curve, poor fit]
CCOC(=O)C1=C(C)N(CCCC(=O)O)C(=O)NC1c1ccc2ccccc2c1 (stereo unspecified) | inconclusive: 2 µM [inhibitor, full curve, poor fit]
CCOC(=O)C1=C(COC(=O)/C=C/c2ccccc2Cl)NC(=O)NC1C (stereo unspecified) | inconclusive: 5.62 µM [inhibitor, single point]
CC(C)C[C@H]1CNC(=S)N1C[C@H]1CCCN1C[C@H](Cc1ccc(O)cc1)N1C[C@H](Cc2ccccc2)N(CC2CCCCCC2)C1=S | inconclusive: 7.94 µM [inhibitor, partial curve]
O=C(CCN1CCc2ccccc2C(c2ccccc2)C1)c1ccc2c(c1)OCCO2 (stereo unspecified) | inconclusive: 10 µM [inhibitor, partial curve, poor fit]
COc1ccc(NC(=O)CN(C)S(=O)(=O)c2ccc3[nH]c4c(c3c2)CCCC4)cc1Cl | inconclusive: 31.6 µM [inhibitor, single point]
Nc1ccc(C(=O)O)cc1S(=O)(=O)O | inactive
COC(=O)c1ccc(Nc2cc(C)nc3ccc(C)cc23)cc1 | inconclusive: 25.1 µM [inhibitor, single point]
O=C(CN1CCN(c2ccc(O)cc2)CC1)N1CCc2ccccc21 | inconclusive: 35.5 µM [inhibitor, single point]
CSc1nc2c(cc1C#N)CCC2 | inconclusive: 3.55 µM [inhibitor, single point]
CC(=O)c1cccc(NC(=O)c2ccc3c(c2)C(=O)N(Cc2cccnc2)C3=O)c1 | inconclusive: 1 µM [inhibitor, full curve, poor fit]
CC1(C(=O)NS(=O)(=O)C2CC2)CCCN(C(=O)c2ccc(C(F)(F)F)cc2)C1 (stereo unspecified) | inconclusive: 3.55 µM [inhibitor, single point]

Compound | Potency
CCCCCCCCCCC(C)(C)C(=O)Nc1c(OC)cc(OC)cc1OC | inconclusive: 3.55 µM [inhibitor, single point]
O=C(O)Cc1ccc(Oc2ncc(C(F)(F)F)cc2Cl)cc1 | inconclusive: 7.08 µM [inhibitor, partial curve, poor fit]
Cc1nn(C(C)(C)C)c(OC(=O)C2CCCC2)c1S(=O)(=O)c1ccccc1 | inconclusive: 35.5 µM [inhibitor, single point]
COc1ccc(-c2cc(C(=O)NCc3ccc(C(F)(F)F)cc3)[nH]n2)c(C)c1 | inconclusive: 25.1 µM [inhibitor, single point]
CC1=C(C(=O)OCC2CCCCC2)C(c2c(F)cccc2Cl)CC(=O)N1 (stereo unspecified) | inconclusive: 6.31 µM [inhibitor, single point]
O=C1NC(Cc2c[nH]c3ccccc23)C(=O)N1Cc1ccc(CN2C(=O)NC(Cc3c[nH]c4ccccc34)C2=O)cc1 (stereo unspecified) | inconclusive: 11.2 µM [inhibitor, partial curve, poor fit]
CCOc1cc(C(=O)NCCCNC(=O)c2cc(OCC)c(OCC)c(OCC)c2)cc(OCC)c1OCC | inactive
Cc1ccccc1NC(=O)CSc1nc2c(oc3ccccc32)c(=O)n1-c1ccccc1F | inconclusive: 2.24 µM [inhibitor, partial curve]
COc1ccccc1OCc1ccc(C(=O)N2CCN(C(=O)c3ccco3)CC2)cc1 | inactive
C[C@@H]1CN([C@H](C)CO)C(=O)c2cccc(NC(=O)Nc3ccc(F)cc3)c2O[C@H]1CN(C)C(=O)Nc1ccc(C(F)(F)F)cc1 | inconclusive: 14.1 µM [inhibitor, partial curve, poor fit]
O=C(Cn1cnc2c(NCc3ccccc3)ncnc21)NCC1CCCO1 (stereo unspecified) | inactive
CC1CCN(C(=O)c2cc(-c3ccc(Cl)cc3)on2)CC1 | inconclusive: 0.708 µM [inhibitor, full curve, poor fit]
NC(=O)CC(NC(=O)c1cccc(Br)c1)c1ccc(N2CCC(N3CCCC3)CC2)c([N+](=O)[O-])c1 (stereo unspecified) | inconclusive: 8.91 µM [inhibitor, partial curve, poor fit]
COc1ccc(NC(=O)Cc2c(SC)c3ccccc3n2Cc2ccccc2)cc1 | inconclusive: 5.62 µM [inhibitor, single point]
Cn1cc(/C=N/n2cnc3scc(-c4ccccc4)c3c2=O)c2ccccc21 | inconclusive: 35.5 µM [inhibitor, single point]
O=C(/C=C/c1ccco1)NC(=S)Nc1cc(C(F)(F)F)ccc1N1CCOCC1 | inactive
COc1ccc(NC(=O)Nc2nnc(N(C)C3CCCCC3)s2)c(OC)c1 | active: 11.2 µM
C=CCC[C@@H](Cc1ccc(F)cc1)C(=O)OC[C@@H](C)NC(=O)[C@@H](CC=C)CC(=O)N[C@H](CO)Cc1ccccc1 | inconclusive: 17.8 µM [inhibitor, single point]
NC(=O)COC(=O)c1ccc2noc(-c3ccccc3)c2c1 | inactive
CC1CCC2C(=O)N(c3ccc(NC4CCN(Cc5ccccc5)CC4)c([N+](=O)[O-])c3)C(=O)C2C1 (stereo unspecified) | inactive
CC1CCN(C2=NC(=O)/C(=C/c3ccccc3F)S2)CC1 | inactive

Compound | Potency
CCOC(=O)c1ccc2c(c1)sc(=NC(=O)c1ccco1)n2CCOC | inconclusive: 6.31 µM [inhibitor, single point]
O=C(CSc1nnc(CNC(=O)c2c(F)cccc2F)o1)NCc1ccco1 | inactive
CC1=Nc2cc(C(=O)N3CCCC3)ccc2Sc2ccc(C)cc21 | inactive
CCn1c(CN2CCC(C)CC2)nc2cc(NC(=O)COc3ccc([N+](=O)[O-])cc3)ccc21 | inconclusive: 0.631 µM [inhibitor, partial curve, poor fit]
CCc1ccc(C(=O)NNC(=O)c2cccc(S(=O)(=O)N3CCN(C)CC3)c2)cc1 | inconclusive: 0.447 µM [inhibitor, full curve, poor fit]
CCOc1ccc(-c2cc(N)n(S(=O)(=O)c3ccc(OC)c(OC)c3)n2)cc1 | inconclusive: 31.6 µM [inhibitor, single point]
CC1CN(c2nc3c(c(=O)[nH]c(=O)n3C)n2Cc2ccccc2F)CC(C)O1 (stereo unspecified) | inactive
COC(=O)c1ccc(/C=C/c2c(-c3ccsc3)sc3ccccc23)cc1 | inconclusive: 35.5 µM [inhibitor, single point]
O=C1c2[nH]nc(-c3ccccc3O)c2C(c2cccc(Cl)c2)N1Cc1ccco1 (stereo unspecified) | inconclusive: 35.5 µM [inhibitor, single point]
CC(C)c1ccc(NC(=O)c2cccn2-c2nnc(N3CCCCC3)s2)cc1 | inconclusive: 2.51 µM [inhibitor, partial curve, poor fit]
COc1ccc(C2=Nc3ccc(Br)cc3C(c3ccccc3)N2CC(=O)NN)cc1 (stereo unspecified) | inconclusive: 35.5 µM [inhibitor, single point]
Cc1ccc2nc(N(CCCN(C)C)C(=O)c3ccc(Br)s3)sc2c1 | inconclusive: 35.5 µM [inhibitor, single point]
COc1ccc(Cc2nnc(NC(=O)c3ccc(OC)cc3OC)s2)cc1 | inconclusive: 35.5 µM [inhibitor, single point]
CCN(CC)c1ccc(/C=N/NC(=O)c2nnn(-c3nonc3N)c2C(C)C)c(O)c1 | inconclusive: 35.5 µM [inhibitor, single point]
CCOC(=O)c1c(NC(=S)Nc2ccccc2)sc2c1CC(C)(C)SC2 | inactive
Cc1ccc2oc(=O)c3cc(C(=O)NCc4ccco4)sc3c2c1 | inconclusive: 31.6 µM [inhibitor, single point]
O=C(NCC1CCCO1)c1ccc(S(=O)(=O)N2CCC(c3nc4ccc(Cl)cc4[nH]3)CC2)cc1 (stereo unspecified) | inconclusive: 35.5 µM [inhibitor, single point]
CCc1nc2c(OCCn3cccc3)cccn2c1N(C=O)Cc1ccc(OC)cc1 | inconclusive: 35.5 µM [inhibitor, partial curve, poor fit]
COc1ccc(CCN=C(N)NS(=O)(=O)c2ccccc2)cc1 | inconclusive: 0.251 µM [inhibitor, full curve, poor fit]
